# Experimental data published in the supplement of paper PMC11417369.
# ± gives the standard deviation of the averaged measurements. The list shows a part of the results.
# System: PfAP2-I AP2 domain 3 (GST-tagged)
# Experiment: gcPBM binding intensity (ln(normalized median fluorescence intensity)); higher = stronger DNA binding
# How it was run: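 GST-tagged P. falciparum DNA-binding domains, expressed in E. coli (about 25 μg on average), were applied for 1 h to an Agilent 4 × 180k array of primer-extended double-stranded 36-bp intergenic genomic probes plus negative controls. The binding buffer was 1× PBS with 1% milk, 0.2 mg/ml BSA, 0.5% salmon testes DNA and 0.03% Triton X-100. Bound protein was detected with Alexa488 anti-GST antibody and scanned at 488 nm. Binding intensity is the highest Masliner-normalised natural-log median intensity across replicate spots of either probe orientation.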
row,Sequence,gcPBM binding intensity (ln)
1,TAACTTTATTTTCCTGTACACACATTTGACATATTA [CACACA_site9116],8.21 ± 0.59
2,TCAAATTACGTAAGAACATGCGATATAAGAAATACG [TGCATGCA_site691],8.07 ± 0.61
3,AGCAGACACCAACACACACACATATATATATATATA [CACACA_site337],9.45 ± 0.3
4,TTTATACAAAAGAACAGTACAATAAAGGATTTATGA [XGTACX_site811],7.69 ± 0.58
5,CATATTCCCCCCCACACACACACACGCATACATACC [CACACA_site7148],10.8 ± 0.33
6,ATATAAAAAATATAAGGTACACATATATGTAGATAT [XGTACX_site6792],8.03 ± 0.64
7,TAAATAAAATACAAATGTACATAAATAATAAATATA [XGTACX_site1813],7.79 ± 0.47
8,AATTATTTTAAATATTGTACTATTACAGAATGGTGT [XGTACX_site5693],8.04 ± 0.52
9,CTTTTTTATTTTTCAACACACATAATAAATTTCTAT [CACACA_site1037],7.97 ± 0.6
10,GGTTAAAAAAAGCATACACACTATCCTCTTTGCTCT [CACACA_site7246],7.9 ± 0.65
11,ATATTTTACAAATGCACACATAATTTTTTTTTTTTT [CACACA_site2763],9.33 ± 0.099
12,GAACCTTTAAAATACACACCCAAATCCTTTGAAATA [CACACA_site3630],7.78 ± 0.61
13,TACATAAATACATACATACACACATATATATATATA [CACACA_site2105],9.21 ± 0.69
14,TTTTTTTTTATATATACACACAATAAATAAATATAA [CACACA_site2954],7.9 ± 0.33
15,AAATTAAACAATAAATGTACATATATATTTGTATAT [XGTACX_site1092],7.68 ± 0.38
16,ATAAAAAATAAATAAGGTACAGAACATTTATACATT [XGTACX_site1783],7.88 ± 0.55
17,AACAAGGTATTAGGGTGTACTATATATATTTATATT [XGTACX_site7776],8.26 ± 0.3
18,TAAAGGAGCCTATGAACACACACATGTACTTATATT [CACACA_site9351],7.67 ± 0.59
19,AATTGTTTGTTTGGGTGTACATGGTTCTATATAAAT [XGTACX_site7940],8.52 ± 0.2

row,Sequence,gcPBM binding intensity (ln)
1,AATAAAATATAAACATTATATATATATATATATATA [GTGCAC_negctrl_site58],9.24 ± 0.69
2,ATTTTTTCTTTTTTTTTTCCGTTTTTTTGGACATTT [CACACA_negctrl_site1174],7.58 ± 0.68
3,ATTAAAATGGTATGTGCGCACATAATATATATATGT [GTGCAC_site9572],9.16 ± 0.49
4,ACATTGACATGTCGAAGTACTCAAGAAGCATACAAT [XGTACX_site3948],7.72 ± 0.65
5,ATATAAATGATATGTACACACATTTATATTTATAAA [CACACA_site7600],7.75 ± 0.26
6,ACTCTATACATCTAATGTACATGGAAAAAAAAATTC [XGTACX_site733],8.07 ± 0.42
7,TGGAAAATTATTAACACACACATATAAATATATATA [CACACA_site46],8 ± 0.69
8,TTCTTACATAAAATATCACACACATAAAAAAACAAT [CACACA_site8576],8.06 ± 0.35
9,GTAATAAGAATTATAGTGCAATGTAATACATTTATA,9.255 ± 0.007
10,AATACAACATAATGAAGTACTGTATTTTATATTACT [XGTACX_site4885],7.52 ± 0.42
11,TAATTTGAACGGTACAGTACTCTTTTTCTTTTTCAT [XGTACX_site5534],7.48 ± 0.55
12,ATATATTTTTTCAATTGTACGTTTTAATAATATTTA [XGTACX_site2130],7.94 ± 0.52
13,ATGAAATCTTTAGAATATAGATGATGTTATTTAATT [XGTACX_negctrl_site511],7.33 ± 0.54
14,TTTCTTTGAATAAATACACACGAGAAATGAAAGTAG [CACACA_site8490],8.38 ± 0.6
15,GCAAAATTTCCTAAGGTGCTTTTATTTTACACCGTT [GTGCAC_site9923],10 ± 0.42
16,AATGGGTTAGCACATACACACCAATATATTATAGAT [CACACA_site7444],7.89 ± 0.59
17,CTTTTATTGCTCTATATGCACACCTTAATTCTTCAT [CACACA_site2195],9.74 ± 0.19
18,TTTATTACCATATTTTGTACACACATCTTTATCTCA [XGTACX_site6842],8.26 ± 0.74
19,TTAAATAGCTGTAATTGTACAAATAAATACATAAAT [XGTACX_site3097],7.82 ± 0.54

row,Sequence,gcPBM binding intensity (ln)
1,TATAGTAATATTTGAAGTACAAAATTAAAATAAATA [XGTACX_site7634],7.71 ± 0.54
2,TTATATAAGGTCTATATATAAATATTAATGATAAGG [TGCATGCA_negctrl_site354],7.75 ± 0.46
3,TTAATATTTTGATGTGTACACATTAAAATAGTTTTA [CACACA_site5712],7.7 ± 0.47
4,TAAATATATATATGGTGTACCATTTTGGGTTAATAT [XGTACX_site2706],7.91 ± 0.47
5,GGGAGGATATTTCACAGTACCCAGGAAATCTGCGGA [XGTACX_site2555],8.09 ± 0.5
6,TATATTATTTTTTATTGTACTTAAAAATATTATTTG [XGTACX_site1443],7.7 ± 0.15
7,AGAAGTTTATCTTTTAGTACGCATAAAAAAAAAAAA [XGTACX_site2359],8.03 ± 0.49
8,TATAAATAATTATATTGTACTCTTTATATTTTTCTT [XGTACX_site5335],7.74 ± 0.49
9,AAGGAAATAATTAAATGTACAAAAAAAAAAAAAATT [XGTACX_site562],7.62 ± 0.46
10,TACAAACAAACACATAGCAATATATGTTATCAAAAA [XGTACX_negctrl_site1],7.41 ± 0.69
11,TTTTATGCTCAATTATTAAGAAATACTTTTTCTTCC [XGTACX_negctrl_site208],7.7 ± 0.71
12,ATATTTTTTTTTCTTTCGCACACGTGAAAGAATTTC [CACACA_site8636],8.46 ± 0.51
13,AAAATAAAAATTAACTGTACATACATTATTCAAATT [XGTACX_site6106],7.59 ± 0.6
14,TCCTTATTTTGCAGGAGTACCATTTTTTAAAAATAC [XGTACX_site5968],8.61 ± 0.74
15,ACAATTACTTATTTTAATTTTTTTAATCTATTGATT [CACACA_negctrl_site967],7.45 ± 0.64
16,AATAACAATTATAAAAGTACAGATTTTTATTTCTAA [XGTACX_site5746],7.38 ± 0.45
17,TTTTTTTTGTTATGAACATGCAAATTAAAATATAAT [TGCATGCA_site954],7.83 ± 0.59
18,TAAATACATAAAAATTGTACACATTGTTTTCTCTTT [XGTACX_site6435],7.74 ± 0.29
19,TACTTTTCTTAAAGATGTACGTTTTAAAAATAAAAT [XGTACX_site14],7.81 ± 0.2
